Results: PubChem BioAssay AID504845 (National Center for Advancing Translational Sciences (NCATS), 2011)
“And” between values parts separate entries of the source, which are not always exact repeats. Identical values can stand only once. Among all 390,000 compounds or so, about 150 (0.038%) were called active. This list was built around the results that the source calls inconclusive (neither active nor inactive); the mix of calls is not that of the screen. The call rests on the fitted dose curve; in most records, active means well fitted inhibition curve with a large enough effect; inconclusive means small, poorly fitted or top-dose-only effect; inactive means no such curve, though single readings can be large or run the other way. Where the call is inconclusive, the potency comes from a doubtful curve fit.

Biological target: Regulator of G-protein signaling 4 (Homo sapiens) (UniProt P49798)
Chain of UniProt P49798 (P49798 whole entry, looked up): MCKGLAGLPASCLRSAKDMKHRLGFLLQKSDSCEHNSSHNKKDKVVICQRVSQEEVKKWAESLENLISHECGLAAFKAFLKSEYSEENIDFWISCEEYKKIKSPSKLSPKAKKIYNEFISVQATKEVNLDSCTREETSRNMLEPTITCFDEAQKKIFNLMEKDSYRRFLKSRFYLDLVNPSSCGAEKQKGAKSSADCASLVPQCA
Assay: Inhibitors of Regulator of G Protein Signaling (RGS) 4: qHTS; further: nearly all actives have a fitted effect of over 75% in size
Details: Transcreener GDP fluorescence polarization, RGS4-accelerated GTP hydrolysis; series mostly up to 114 µM; activity change, negative = inhibition: at the top concentration
Outline: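 MLSMR compounds (23 nl, pin-transferred) preincubated 10 min at room temperature with a 500nM (2x) first reagent, then RGS4 at 900nM (2x) plus Transcreener GDP mix added; fluorescence polarization (620/688 nm) read before and after 90 min at 30 °C.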
On the % scale 0 is the no-effect control and ±100 the full control effect; potency means the concentration at half of the fitted maximal effect; tags describe the fitted curve by direction and shape.

SMILES	Potency	activity change, negative = inhibition
CCOC(=O)N(C)OC(=O)Nc1ccc(Cl)c(Cl)c1	inconclusive: 35.5 µM [inhibitor, full curve, poor fit]	–
Cc1cccc(-c2nnc(SCc3nc4ccccc4[nH]3)n2Cc2ccco2)c1	inconclusive: 89.1 µM [inhibitor, single point]	–
Cc1ccc(S(=O)(=O)NCC2CCC(C(=O)NCc3ccc4c(c3)OCO4)CC2)cc1 (stereo not given)	–	inactive: -6.37%
CC(=O)c1ccc(NC(=O)Nc2sc(NS(=O)(=O)c3ccccc3)nc2C)cc1	inconclusive: 79.4 µM [inhibitor, partial curve, poor fit]	–
O=c1oc2c(F)cc(F)cc2cc1S(=O)(=O)c1ccc(F)cc1	–	inactive: -14.8%
Cc1ccc(Cc2nc3ccccc3nc2SCC(=O)N2CCCCC2)cc1	–	inactive: -16.6%
CC(C)(C)C(=O)Nc1ccc(C(=O)CSc2nnc(C3CC3)n2C2CC2)cc1	inconclusive: 44.7 µM [inhibitor, partial curve, poor fit]	–
Cc1nc(C)c(CCNS(=O)(=O)c2ccc(C)c(C)c2)s1	–	inactive: -17.9%
CCOc1ccccc1NC(=O)c1c(NCc2ccc(C)o2)sc2c1CCCCC2	inconclusive: 50.1 µM [inhibitor, partial curve, poor fit]	–
CCCCCCCCCCCCCCCCCCNc1ccn(C2OC(COP(=O)(O)OCC3OC(n4cc(F)c(=O)[nH]c4=O)CC3O)C(O)C2O)c(=O)n1 (stereo not given)	inconclusive: 79.4 µM [inhibitor, partial curve, poor fit]	–
CN(C)/N=C/C=C1\CCC/C(=C/c2cccs2)C1=O	inconclusive: 44.7 µM [inhibitor, partial curve, poor fit]	–
O=C(CSc1ccccn1)c1ccc(F)cc1	inconclusive: 17.8 µM [inhibitor, full curve, poor fit]	–
CCOc1ccc(-c2nonc2NC(=O)c2oc3ccc(Cl)cc3c2C)cc1	inconclusive: 35.5 µM [inhibitor, full curve, poor fit]	–
COc1cccc(CN(C)C(=O)c2[nH]c(C)c(C(C)=O)c2C)c1OC	inconclusive: 50.1 µM [inhibitor, partial curve, poor fit]	–
COC(=O)CN(C)C1CC(=O)N(c2ccc(Cl)cc2)C1=O (stereo not given)	inconclusive: 112 µM [inhibitor, partial curve, poor fit]	–
Cc1cccc(-n2c(O)c(C=Nc3ccccc3-c3n[nH]c(=S)[nH]c3=O)c3ccccc3c2=O)n1	inconclusive: 79.4 µM [inhibitor, partial curve, poor fit]	–
CC(C)CN1CCC(=O)N([C@H](COc2ccccc2)Cc2ccccc2)CC1	–	inactive: 13.3%
Cc1nc(Nc2cccc(Cl)c2)c2oc3ccccc3c2n1	–	inactive: 5.5%
COC(=O)c1cc(NC(=O)c2ccccc2)c(=O)oc1C	inconclusive: 56.2 µM [inhibitor, partial curve, poor fit]	–
O=S(=O)(NCc1ccc(Cl)cc1)NCc1ccc(Cl)cc1	inconclusive: 79.4 µM [inhibitor, partial curve, poor fit]	–
COc1ccc(C)cc1NC(=O)c1ccc2c(c1)N(Cc1cccc(Cl)c1)C(=O)c1ccccc1S2=O (stereo not given)	–	inactive: -0.978%
O=C(COc1c(Cl)cccc1Cl)NN1C(=O)CSC1=S	inconclusive: 28.2 µM [inhibitor, full curve, poor fit]	–

SMILES	Potency	activity change, negative = inhibition
O=S(=O)(c1ccc2oc(=S)[nH]c2c1)N1CCOCC1	inconclusive: 100 µM [inhibitor, partial curve, poor fit]	–
Cn1nnnc1-c1cc(Cl)cc(Cl)c1	inconclusive: 79.4 µM [inhibitor, partial curve, poor fit]	–
COC(=O)[C@@H](N)CSC/C=C(\C)CC/C=C(\C)CCC=C(C)C	inconclusive: 84.4 nM [inhibitor, full curve, poor fit] and inconclusive: 6 nM [inhibitor, full curve, poor fit]	–
Cc1nn(-c2ccccc2)c(C)c1NC(=O)COc1ccc(Cl)cc1Cl	inconclusive: 89.1 µM [inhibitor, single point]	–
Cc1cc(C)nc(-n2nc(C)cc2NC(=O)CN2CCC(C)CC2)n1	–	inactive: -33.6%
CC1Cc2ccccc2N1C(=O)CN1CCC(n2nnc3cc(C(F)(F)F)ccc32)CC1 (stereo not given)	–	inactive: 2.79% [at 11.4 µM]
Cc1oc(-c2ccccc2Cl)nc1CN1CCCC1c1ccc(F)cc1 (stereo not given)	–	inactive: 11.8%
O=C(CN1C(=O)CCS(=O)(=O)c2ccccc21)Nc1cccc(F)c1	inconclusive: 89.1 µM [inhibitor, single point]	–
COc1cc(/C=C2\SC(=S)N(Nc3ncc(C(F)(F)F)cc3Cl)C2=O)ccc1O	inconclusive: 44.7 µM [inhibitor, partial curve, poor fit]	–
COc1ccc(C(=O)Nc2ccc(S(=O)(=O)N3CCOCC3)cc2)cc1	–	inactive: -26.7%
CN1CCC(=C2c3ccccc3C=Cc3ccccc32)CC1	inconclusive: 4.74 µM [inhibitor, partial curve, poor fit] and inconclusive: 2.67 µM [inhibitor, partial curve, poor fit]	–
COc1ccc(Cl)cc1NC(=S)Nc1ccccc1C	inconclusive: 31.6 µM [inhibitor, partial curve, poor fit]	–
O=c1[nH]c(-c2ccc(-c3cccc(Cl)c3)o2)nc2ccccc12	inconclusive: 44.7 µM [inhibitor, partial curve, poor fit]	–
CCN(CC)c1ccc(-c2nc3cnccn3c2NC2CCCC2)cc1	inconclusive: 89.1 µM [inhibitor, single point]	–
O=C(Cc1cccs1)NNC(=S)NC(=O)c1ccco1	inconclusive: 100 µM [inhibitor, partial curve, poor fit]	–
CCC(C)(C)n1nnnc1C(c1ccc(O)c(OC)c1)N1CCc2ccccc2C1 (stereo not given)	inconclusive: 79.4 µM [inhibitor, partial curve, poor fit]	–
CN1CCC(N(C)S(=O)(=O)c2ccc(NC(=O)COc3ccc(Br)cc3Cl)cc2)CC1	–	inactive: 14.3%
Cc1cc(-c2ccc(N=Nc3ccc4c(S(=O)(=O)O)cc(S(=O)(=O)O)c(N)c4c3O)c(C)c2)ccc1N=Nc1ccc2c(S(=O)(=O)O)cc(S(=O)(=O)O)c(N)c2c1O	–	inactive: -149% [at 56.9 µM]
COc1ccc(-c2csc(NC(=O)CC(C)C)n2)cc1	inconclusive: 89.1 µM [inhibitor, single point]	–
CCOC(=O)c1c(C(=O)OCC)c(C)n(Cc2cc(OC)c(OC)c(OC)c2)c1C	inconclusive: 89.1 µM [inhibitor, single point]	–
COC(=O)c1ccc(C2NC(C(=O)O)CS2)cc1 (stereo not given)	inconclusive: 50.1 µM [inhibitor, partial curve, poor fit]	–
COc1ccc(NC(=O)CSc2nc3n[nH]c(C)c3c(=N)n2-c2ccc(Cl)c(C)c2)cc1OC	inconclusive: 17.8 µM [inhibitor, partial curve, poor fit]	–

SMILES	Potency	activity change, negative = inhibition
O=C(CN1CCN(c2ccc(O)cc2)CC1)Nc1ccc(-c2ccccc2)cc1	inconclusive: 70.8 µM [inhibitor, single point]	–
CCN(CC)S(=O)(=O)c1ccc(NC(=O)Cc2cccs2)cc1	inconclusive: 89.1 µM [inhibitor, partial curve, poor fit]	–
O=C(CSc1c2c(nc3ccc(Cl)cc13)CCCC2)N1CCN(C(=O)c2ccco2)CC1	inconclusive: 89.1 µM [inhibitor, partial curve, poor fit]	–
C#CCN(C#N)c1nc(NCC)nc(NC(C)C)n1	–	inactive: -0.497%
Clc1ccc(OCCCNCc2ccccc2)c2ccccc12	–	inactive: -0.761%
CCOC(=O)c1cc(NC(=O)N(CC)C2CCCCC2)c(C)nc1C	–	inactive: 18.4%
COC(=O)c1ccc(NC(=S)NC2CC(C)(C)NC(C)(C)C2)cc1	–	inactive: -9.45%
COc1ccc(NC(=O)c2c(N)no[n+]2[O-])cc1	–	inactive: 6.8%
Nc1cc(N)cc(C(=O)Nc2ccc3c(c2)C(=O)NC3=O)c1	–	inactive: -17%
COc1ccc(Cc2nc(-c3ccccn3)no2)cc1	–	inactive: -16.1%
O=C(CSc1ccc([N+](=O)[O-])cc1)Nc1cccc(S(=O)(=O)Nc2ccccc2F)c1	inconclusive: 50.1 µM [inhibitor, partial curve, poor fit]	–
Cc1sc2ncn(CCC(=O)O)c(=O)c2c1C	inconclusive: 89.1 µM [inhibitor, single point]	–
COc1cccc(C(=O)NN/C(C)=C/C(=O)C(F)(F)C(F)(F)C(F)(F)F)c1	inconclusive: 79.4 µM [inhibitor, partial curve, poor fit]	–
O=C(OCCN1CCOCC1)c1ccccc1	inconclusive: 70.8 µM [inhibitor, single point]	–
COc1ccc(CCNC(=O)Cc2c(C)c3ccc(O)c(C)c3oc2=O)cc1OC	–	inactive: 17.4%
O=c1n(Cc2ccc([N+](=O)[O-])cc2)c2ccccc2c2nc(-c3ccccc3)nn12	–	inactive: -5.28%
CCOC(=O)C1=C(CNCc2ccc(F)cc2)NC(=O)NC1c1cccc([N+](=O)[O-])c1 (stereo not given)	inconclusive: 100 µM [inhibitor, single point]	–
COc1ccc(N(C)C(=O)c2ccc3c(Cl)c4c(nc3c2)CCCC4)c(OC)c1	–	inactive: -37.4% [at 56.9 µM]
O=S(=O)(c1ccc2c(c1)C(=NO)c1cc(S(=O)(=O)N3CCCCC3)ccc1-2)N1CCCCC1	–	inactive: 1.05% [at 11.4 µM]
CSc1ccc(CCNC(=O)CN2C(=O)COc3ccc(S(=O)(=O)N4CCCC4)cc32)cc1	–	inactive: 13.3%
O=c1c(-c2ccc(F)cc2)[n+]([O-])c2ccccc2n1OCc1ccccn1	inconclusive: 44.7 µM [inhibitor, partial curve, poor fit]	–
